# Source: PubChem BioAssay (NCATS)
# Inconclusive results, whose numbers are uncertain, are shown with a selection of clear calls. The source made the active and inactive calls. Calls follow the shape of the dose curve; as a rule, active = well fitted activation curve with a large enough effect in the signal ratio, with a control signal flat (not every such curve was filed as active); inconclusive = small, poorly fitted or top-dose-only effect, or effect the other way, or a change in a side signal; inactive = flat fitted curve, though single readings scatter; the % refers to the signal ratio.
# Assay: qHTS Assay for Identification of Small Molecule Agonists for Hypoxia Response Element Signaling Pathway (AID 914); as to activation: top concentration of the series differs between compounds; % of control where 0% means no effect
# Details: ME-180 HRE-bla reporter, beta-lactamase ratio, CoCl2, 17 h; activation: hits give high values
# Summary of the method: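 ME-180 cells carrying an HRE-driven beta-lactamase reporter were treated with compounds in a titration series plus an EC50 level of CoCl2 for 17 h at 37 degrees Celsius; CCF4 readout as the 460nm/530nm ratio gave AC50 values.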
# Potency is read from the fitted curve at half-maximal effect.
Structure (SMILES),activation,Potency
COc1ncc2nc(CCc3ccccc3)c(=O)n(CCC#N)c2n1,inactive: -14.7%,–
COc1ncc2nc(-c3cccs3)c(=O)n(-c3ccccc3)c2n1,–,active: 3.16 µM
O/N=C(\c1ccc2c(c1)OCCO2)C1CCCCC1,inconclusive: -30.8%,–
CC1(C)[C@@H]2CC[C@]1(CC(=O)O)[C@H](Cl)C2,inactive: 2.22%,–
